# Numbering of substitutions follows the chain as printed; changes in the protein carry UniProt numbers. The list shows a part of the results.
# B1: GAUUGUC (DNA:RNA)
# RNA: GGGAGACCGGAAUUCAGAUUGUCCGAUUGUCUUAAAUCCCGUCGUAGCCACCA
# DNA 1: CAATCTGAATTCCGGTCTCCC
# DNA 2: TGGTGGCTACGACGGGATT
# B2: GAACUUC (DNA:RNA)
# RNA: B1 RNA with U27A, U28C, G29U
# DNA 1: CAATCTGAATTCCGGTCTCCC
# DNA 2: TGGTGGCTACGACGGGATT
# B3: AAACGCU (DNA:RNA)
# RNA: B1 RNA with G25A, U27A, U28C, U30C, C31U
# DNA 1: CAATCTGAATTCCGGTCTCCC
# DNA 2: TGGTGGCTACGACGGGATT
# B4: UAUGCUA (DNA:RNA)
# RNA: B1 RNA with G25U, U28G, G29C, C31A
# DNA 1: CAATCTGAATTCCGGTCTCCC
# DNA 2: TGGTGGCTACGACGGGATT
# B5: UGUCGGU (DNA:RNA)
# RNA: B1 RNA with G25U, A26G, U28C, U30G, C31U
# DNA 1: CAATCTGAATTCCGGTCTCCC
# DNA 2: TGGTGGCTACGACGGGATT
# B6: ACUGACA (DNA:RNA)
# RNA: B1 RNA with G25A, A26C, U28G, G29A, U30C, C31A
# DNA 1: CAATCTGAATTCCGGTCTCCC
# DNA 2: TGGTGGCTACGACGGGATT
# B7: CAACCUA (DNA:RNA)
# RNA: B1 RNA with G25C, U27A, U28C, G29C, C31A
# DNA 1: CAATCTGAATTCCGGTCTCCC
# DNA 2: TGGTGGCTACGACGGGATT
# B8: CCCGUAU (DNA:RNA)
# RNA: GGGAGACCGGAAUUCAGAUUGUCCCCCGUAUUUAAAUCCCGUCGUAGCCACCA
# DNA 1: CAATCTGAATTCCGGTCTCCC
# DNA 2: TGGTGGCTACGACGGGATT
# B9: CCCGUGA (DNA:RNA)
# RNA: B8 RNA with A30G, U31A
# DNA 1: CAATCTGAATTCCGGTCTCCC
# DNA 2: TGGTGGCTACGACGGGATT
# B10: GAACUCG (DNA:RNA)
# RNA: B1 RNA with U27A, U28C, G29U, U30C, C31G
# DNA 1: CAATCTGAATTCCGGTCTCCC
# DNA 2: TGGTGGCTACGACGGGATT
# B11: GUUAUCG (DNA:RNA)
# RNA: B1 RNA with A26U, U28A, G29U, U30C, C31G
# DNA 1: CAATCTGAATTCCGGTCTCCC
# DNA 2: TGGTGGCTACGACGGGATT
# B12: AGCUCCA (DNA:RNA)
# RNA: B8 RNA with C25A, C26G, G28U, U29C, A30C, U31A
# DNA 1: CAATCTGAATTCCGGTCTCCC
# DNA 2: TGGTGGCTACGACGGGATT
# B13: CUUUCGA (DNA:RNA)
# RNA: B1 RNA with G25C, A26U, G29C, U30G, C31A
# DNA 1: CAATCTGAATTCCGGTCTCCC
# DNA 2: TGGTGGCTACGACGGGATT
# B14: CCAGUAA (DNA:RNA)
# RNA: B8 RNA with C27A, U31A
# DNA 1: CAATCTGAATTCCGGTCTCCC
# DNA 2: TGGTGGCTACGACGGGATT
# B15: GAUGUGA (DNA:RNA)
# RNA: B1 RNA with U28G, G29U, U30G, C31A
# DNA 1: CAATCTGAATTCCGGTCTCCC
# DNA 2: TGGTGGCTACGACGGGATT
# B16: GCCGGUU (DNA:RNA)
# RNA: B8 RNA with C25G, U29G, A30U
# DNA 1: CAATCTGAATTCCGGTCTCCC
# DNA 2: TGGTGGCTACGACGGGATT
# B17: GUUUCCC (DNA:RNA)
# RNA: B1 RNA with A26U, G29C, U30C
# DNA 1: CAATCTGAATTCCGGTCTCCC
# DNA 2: TGGTGGCTACGACGGGATT
# B18: UCAUCUC (DNA:RNA)
# RNA: B1 RNA with G25U, A26C, U27A, G29C
# DNA 1: CAATCTGAATTCCGGTCTCCC
# DNA 2: TGGTGGCTACGACGGGATT
# B19: CGCAUGU (DNA:RNA)
# RNA: B8 RNA with C26G, G28A, A30G
# DNA 1: CAATCTGAATTCCGGTCTCCC
# DNA 2: TGGTGGCTACGACGGGATT
# B20: GUAGUAG (DNA:RNA)
# RNA: B8 RNA with C25G, C26U, C27A, U31G
# DNA 1: CAATCTGAATTCCGGTCTCCC
# DNA 2: TGGTGGCTACGACGGGATT
# B21: UCAUGCC (DNA:RNA)
# RNA: B1 RNA with G25U, A26C, U27A, U30C
# DNA 1: CAATCTGAATTCCGGTCTCCC
# DNA 2: TGGTGGCTACGACGGGATT
# B22: GCGAGCG (DNA:RNA)
# RNA: B1 RNA with A26C, U27G, U28A, U30C, C31G
# DNA 1: CAATCTGAATTCCGGTCTCCC
# DNA 2: TGGTGGCTACGACGGGATT
# B23: ACCGGCG (DNA:RNA)
# RNA: B8 RNA with C25A, U29G, A30C, U31G
# DNA 1: CAATCTGAATTCCGGTCTCCC
# DNA 2: TGGTGGCTACGACGGGATT
# B24: AGUAGGA (DNA:RNA)
# RNA: B1 RNA with G25A, A26G, U28A, U30G, C31A
# DNA 1: CAATCTGAATTCCGGTCTCCC
# DNA 2: TGGTGGCTACGACGGGATT
# B25: UAAGACU (DNA:RNA)
# RNA: B8 RNA with C25U, C26A, C27A, U29A, A30C
# DNA 1: CAATCTGAATTCCGGTCTCCC
# DNA 2: TGGTGGCTACGACGGGATT
# B26: UGUGAUA (DNA:RNA)
# RNA: B1 RNA with G25U, A26G, U28G, G29A, C31A
# DNA 1: CAATCTGAATTCCGGTCTCCC
# DNA 2: TGGTGGCTACGACGGGATT
# B27: AAGCUGA (DNA:RNA)
# RNA: B8 RNA with C25A, C26A, C27G, G28C, A30G, U31A
# DNA 1: CAATCTGAATTCCGGTCTCCC
# DNA 2: TGGTGGCTACGACGGGATT
# B28: ACAAGAU (DNA:RNA)
# RNA: B8 RNA with C25A, C27A, G28A, U29G
# DNA 1: CAATCTGAATTCCGGTCTCCC
# DNA 2: TGGTGGCTACGACGGGATT
# B29: UAGUGGC (DNA:RNA)
# RNA: B1 RNA with G25U, U27G, U30G
# DNA 1: CAATCTGAATTCCGGTCTCCC
# DNA 2: TGGTGGCTACGACGGGATT
# B30: ACUGAUG (DNA:RNA)
# RNA: B8 RNA with C25A, C27U, U29A, A30U, U31G
# DNA 1: CAATCTGAATTCCGGTCTCCC
# DNA 2: TGGTGGCTACGACGGGATT
# B31: CAGUCAG (DNA:RNA)
# RNA: B8 RNA with C26A, C27G, G28U, U29C, U31G
# DNA 1: CAATCTGAATTCCGGTCTCCC
# DNA 2: TGGTGGCTACGACGGGATT
# Molecular target: T1, RBFOX1 RRM RbFoxmut (Fox-RRM*) (Homo sapiens, UniProt Q9NWB1 109-208, R118D;E147R;N151S;E152T)
# T1 sequence: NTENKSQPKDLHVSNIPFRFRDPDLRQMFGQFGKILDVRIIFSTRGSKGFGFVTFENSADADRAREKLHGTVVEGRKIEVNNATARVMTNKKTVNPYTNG
# Test: EMSA; HiTS-Eq, 1 nM pool, 10 min; buffer printed only for the single-RNA assays: 10 mM Tris pH 7.5, 150 mM NaCl, 3.4 mM EDTA, 0.001% NP-40, 30 C
# Conditions: tags: His6 N-terminal (pET28a); label: 5' 32P
# How it was run: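 Purified RbFox RRM, wild type or mutant, was incubated for 10 min in 50 µL with 1 nM of a 5′-radiolabelled RNA pool carrying 7 randomized nucleotides, whose flanks were annealed to DNA oligonucleotides, over a series of increasing protein concentrations. Unbound RNA was resolved on 8% native PAGE, cut out, reverse-transcribed, barcoded by PCR and sequenced on an Illumina HiSeq 2500. Relative association constants were derived from changes in read counts for each RNA species versus the control reaction and normalised to the cognate motif.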
row,Binder,binding signal
1,B1,0.286 KA relative to UGCAUGU
2,B2,0.0369 KA relative to UGCAUGU
3,B3,0.0595 KA relative to UGCAUGU
4,B4,0.079 KA relative to UGCAUGU
5,B5,0.112 KA relative to UGCAUGU
6,B6,0.0695 KA relative to UGCAUGU
7,B7,0.104 KA relative to UGCAUGU
8,B8,0.0911 KA relative to UGCAUGU
9,B9,0.0904 KA relative to UGCAUGU
10,B10,0.0544 KA relative to UGCAUGU
11,B11,0.171 KA relative to UGCAUGU
12,B12,0.0731 KA relative to UGCAUGU
13,B13,0.079 KA relative to UGCAUGU
14,B14,0.108 KA relative to UGCAUGU
15,B15,0.0836 KA relative to UGCAUGU
16,B16,0.0826 KA relative to UGCAUGU

row,Binder,binding signal
1,B17,0.0699 KA relative to UGCAUGU
2,B18,0.0684 KA relative to UGCAUGU
3,B19,1.08 KA relative to UGCAUGU
4,B20,0.147 KA relative to UGCAUGU
5,B21,0.202 KA relative to UGCAUGU
6,B22,0.128 KA relative to UGCAUGU
7,B23,0.0937 KA relative to UGCAUGU
8,B24,0.0722 KA relative to UGCAUGU
9,B25,0.063 KA relative to UGCAUGU
10,B26,0.175 KA relative to UGCAUGU
11,B27,0.0712 KA relative to UGCAUGU
12,B28,0.102 KA relative to UGCAUGU
13,B29,0.0869 KA relative to UGCAUGU
14,B30,0.114 KA relative to UGCAUGU
15,B31,0.105 KA relative to UGCAUGU

# From paper PMC9911399, “Two distinct binding modes provide the RNA-binding protein RbFox with extraordinary sequence specificity”
